According to PubChem BioAssay AID1508624 (National Center for Advancing Translational Sciences (NCATS), 2021):
The whole screen tested about 48,000 compounds, of which about 120 (0.25%) were called active. Another 4% or so got no clear call; they are omitted. Calls come from the whole dose curve; as a rule, active = well fitted activation curve with a large enough effect; inconclusive = small, poorly fitted or top-dose-only effect, or another doubt; inactive = no such curve, though single readings can be large or run the other way. The list shows a part of the results.

Experiment: Primary qHTS for Identification of Small Molecule Activators of Huntingtin-Antisense Promoter Activity; note: nearly all actives have a fitted effect of over 55% in size
Conditions: HEK293 HTT-AS promoter firefly luciferase reporter, 24 h; series mostly up to 57.5 µM; activity change, positive = activation: at the top concentration
Summary of the method: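 Firefly luciferase readout (Dual-Glo, 10 min RT) after 24 h, 37 °C compound exposure (final up to 57.5 uM) of HEK293 reporter cells cultured 24 h beforehand; PTC124 at 50 uM final as control inhibitor; activity scaled vehicle 0%, zero RLU -100%.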

| Structure (SMILES) | activity change, positive = activation |
| --- | --- |
| COc1ccc(C(=O)CCC(=O)Nc2ccc(F)cc2F)cc1 | inactive: -9.67% |
| COc1ccc(F)cc1S(=O)(=O)Nc1ccc2c(c1)CCCN2C(=O)c1cccs1 | inactive: -13.2% |
| CCOC(=O)CSc1nc2cc(OC)c(OC)cc2c2nc(-c3ccccc3)nn12 | inactive: 0.854% |
| COC(=O)c1sccc1S(=O)(=O)N(CC(=O)NCc1ccc(C)cc1)c1ccc(C)c(C)c1 | inactive: -22.5% |
| Cc1cc(NC(=O)c2cc(Cl)ccc2Cl)ccc1-c1cc2ccccc2oc1=O | inactive: -33.7% |
| CCOC(=O)C1=C(C)N=C2SCCC(=O)N2C1c1ccc(OCc2ccccc2)c(OC)c1 (stereo unspecified) | inactive: -17.6% |
| CC(=O)c1c(C)oc2c1cc(NS(=O)(=O)c1c(C)cc(C)cc1C)c1ccccc12 | inactive: -4% |
| NS(=O)(=O)c1ccc(NC(=O)COc2ccc(S(=O)(=O)NC3CCCCC3)cc2)cc1 | inactive: -5.07% |
| Cc1nc(-n2nc(C)c(CCC(C)C)c2C)sc1C(=O)Nc1cccc(Cl)c1 | inactive: -2.26% |
| Cc1cccc(C)c1NC(=O)c1sc(-n2nc(C)c(Cc3ccc4c(c3)OCO4)c2C)nc1C | inactive: -14.3% |
| Clc1ccc(NCc2nc3ccccc3n2CCOc2ccccc2)cc1 | inactive: 0.244% |
| O=C1C(O)=C(O)C(=O)C(O)=C1O | inactive: -28% |
| COc1ccc(Cl)cc1NC(=O)Cn1c(=O)c2ccccc2n2nncc12 | inactive: -0.66% |
| CCC(C(=O)Nc1ccc(C)c(Cl)c1)n1c(=O)c(-c2ccccc2NC(C)=O)nc2ccccc21 (stereo unspecified) | inactive: -43.9% |
| COc1cc(CNCCSc2nnnn2C)ccc1OCc1ccc(Cl)cc1Cl | inactive: -29% |
| Cc1ccc(NC(=O)Cn2nc3c(cc2=O)CCCC3)cc1Cl | inactive: -11.5% |
| Cc1nccn1CC1CCc2c(c3ccccc3n2C)C1=O (stereo unspecified) | inactive |
| CCN(C(=O)CSc1nc2ccccc2nc1Cc1ccc(F)cc1)c1cccc(C)c1 | inactive: -22.3% |
| NC(=O)c1cc[n+](CC2=C(C(=O)[O-])N3C(=O)[C@@H](NC(=O)Cc4cccs4)[C@H]3SC2)cc1 | inactive: 5.43% |
| COc1ccc(C(=O)Nc2nc3ccccc3n2CCOc2ccc(Cl)cc2)cc1 | inactive: 1.97% |
| CCOc1ccc(N(CC)C(=O)CCc2nc(-c3ccccc3F)no2)cc1 | inactive: -9.66% |
| COc1cccc(NC(=O)Cn2nc(C)c3c(C)n(-c4ccccc4)nc3c2=O)c1 | inactive: -18.1% |
| CCC(Sc1nnc(-c2ccc(OC)c(OC)c2)c(-c2ccc(OC)c(OC)c2)n1)C(=O)NC1CCCC1 (stereo unspecified) | inactive: -7.86% |

| Structure (SMILES) | activity change, positive = activation |
| --- | --- |
| Cc1cccn2c(=O)cc(CSc3nnc(NC(=O)c4ccc(F)cc4)s3)nc12 | inactive: 2.56% |
| O=C(NCCc1ccccc1)c1ccc(Cn2c(SCc3ccccc3)nc3cccnc32)cc1 | inactive: 17.1% |
| CCCOc1ccc(Oc2nc(NCC(C)C)nc(N(C)C)n2)nn1 | inactive: -28.6% |
| CCc1ccc(NC(=O)C(Cc2ccccc2)NS(=O)(=O)c2ccc3c(c2)c(=O)n(C)c(=O)n3C)cc1 (stereo unspecified) | inactive: -16.1% |
| CC(=O)NC[C@H]1CN(c2ccc(N3CCOCC3)c(F)c2)C(=O)O1 | inactive: -1.96% |
| CCOc1ccc(C(=O)Nc2ccc(-n3nncc3-c3ccc(OC)cc3)cc2)cc1 | inactive: -16.2% |
| COc1ccccc1NC(=O)C1=C(C)Nc2nc(-c3ccco3)nn2C1c1ccccc1F (stereo unspecified) | inactive: -14.3% |
| Cn1nnnc1SCCNCc1ccc(Cl)c(Cl)c1 | inactive: -9.11% |
| CCCc1cc(=O)[nH]c(Nc2ccc(OCC)cc2)n1 | inactive: -21.8% |
| Cc1cccc(S(=O)(=O)c2cn(C)c3cc(N4CCN(c5ccccc5)CC4)c(F)cc3c2=O)c1 | inactive: 12% |
| Cc1ccc(Cn2c(C)c3cnn(CC(=O)NCCc4ccc(Cl)cc4)c(=O)c3c2C)cc1 | inactive: -13.1% |
| COc1cccc(CCNC(=O)c2cnc3sc(N4CCOCC4)nn3c2=O)c1 | inactive: -6.42% |
| CCc1ccc(NC(=O)Cn2cc(S(=O)(=O)c3ccc(F)cc3)c(=O)c3cc(OC)ccc32)cc1 | inactive: -41.8% |
| CC(=O)c1ccc(NC(=O)CCc2c(C)nn(-c3ccc4nnc(C)n4n3)c2C)cc1 | inactive: -7.78% |
| COc1ccc(NC(=O)C2CCC(CNS(=O)(=O)c3ccc(Br)s3)CC2)c(OC)c1 (stereo unspecified) | inactive: -23.7% |
| CC(C)CC(C(=O)NCC1CCN(Cc2ccc(F)cc2)CC1)N1Cc2ccccc2C1=O (stereo unspecified) | inactive: -6.19% |
| COc1cc(NC(=O)N2CCC(CN3CCCCCC3)CC2)cc(OC)c1OC | inactive: -3.06% |
| O=C(CSc1nc(-c2ccccc2)nc2cc(=O)[nH]n12)Nc1ccccc1 | inactive: -26.7% |
| CCc1nc(-c2ccc(C)c(S(=O)(=O)N3CCN(c4ccc(C(C)=O)cc4)CC3)c2)no1 | inactive: -37.9% |
| Cc1ccccc1C(=O)N1c2ncnn2C2(CCCCC2)[C@@H]2CCCC[C@@H]21 | inactive: -18% |
| COC(=O)C1=C(C)N(C(C)C)C(=O)C1(NC(=O)c1ccc(C(C)(C)C)cc1)C(F)(F)F (stereo unspecified) | inactive: 6.77% [at 11.5 µM, percent change from vehicle, -100% = no light] |
| Cc1ccccc1Cn1c(=O)n(CCC(=O)NCc2ccco2)c(=O)c2sccc21 | inactive: -10.3% |
| CC(C)Nc1nc2c(-c3cccc(Br)c3)nnn2c2ccccc12 | inactive: 22.5% |
